A short description of assay [1]: ATG_AP_1_CIS: Attagene CIS-FACTORIAL HepG2 Assay for human Activator Protein 1 (AP-1) (AID 2282931). The conditions noted are these: HepG2 Attagene cis-factorial AP-1 reporter mRNA; actives raise or lower the signal. In short, it runs like this:
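HepG2 cells transiently transfected with cis-element-driven reporter transcription units, dosed for 24 hours. Reporter mRNA measured by RT-PCR, 6-FAM labelling, HpaI digestion and capillary electrophoresis. Bidirectional fitting against DMSO baseline.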

Assay [2] is described as follows: ATG_MRE_CIS: Attagene CIS-FACTORIAL HepG2 Assay for human Metal Responsive Element (MRE) (AID 2282954). The conditions noted are these: HepG2 MRE cis-reporter transcription, Attagene multiplex; actives raise or lower the signal. In short, it runs like this: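 Cells were transfected with cis-promoter reporter transcription units, then dosed for 24 h. RNA was reverse-transcribed, amplified, fluorescently labelled and resolved by capillary electrophoresis, and activity was fitted in both directions relative to DMSO.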

A short description of assay [3]: ATG_NRF2_ARE_CIS: Attagene CIS-FACTORIAL HepG2 Assay for human Nuclear Factor Erythroid 2 Related Factor 2 (NFR2) response to Antioxidant Response Elements (ARE) (AID 2282992).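 Also: reporter mRNA level measured by RT-PCR and capillary electrophoresis fluorescence.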 The note with it: HepG2 Attagene ARE/NRF2 reporter, transcription factor activity; actives raise or lower the signal. In short, it runs like this: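 Endogenous transcription factor activity in human liver HepG2 cells is tracked via a cis-element-driven reporter within a multiplexed set. mRNA induction is read by RT-PCR and capillary electrophoresis after 24 h, with DMSO as baseline.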

The record followed here is PubChem BioAssay (EPA / NIEHS).

One may read the AC50 as the concentration giving half of the maximal activity seen. Low values mean greater potency, high ones weaker potency.

Molecules are shown by their SMILES. Some entries of the source have several records that differ or are many. This is not the full list of results. There may be further records. The calls were made as follows: active = hit-call score of the fitted dose curve at least 0.9, where 1 is the maximum; inactive = score below 0.9. The records of an entry are repeats (runs, samples, wells, individuals or studies).

`CC(C)(C)c1ccc(O)c(O)c1`: the AC50 entry was “active: 59.5, 59, 74.8, 106, 16.5 µM [separate samples]” in assay [1]; “active: 43.4, 30.4, 41.5, 58, 15.4 µM [separate samples]” in assay [2]; “active: 17, 31.7, 36.8, 44, 12.1 µM [separate samples]” in assay [3].
